In PubChem BioAssay AID485344 (National Center for Advancing Translational Sciences (NCATS), 2010) one finds inhibition data, which are given here for 96 compounds.

In all, about 340,000 compounds went through this assay and about 6,900 (2%) were called active. Rule as the data show it: active = inhibition above about 30%; inactive = below that, where a call was filed. The entries are a selection whose mix differs from that of the whole data set. The source gives no active or inactive call for entries shown without one.

This experiment concerns the target D(2) dopamine receptor (Homo sapiens) (UniProt P14416). The experiment can be described thus: HTS Assay for Allosteric Antagonists of the Human D2 Dopamine Receptor: Primary Screen for Antagonists. Also: 0% is about no effect. The following applies: HEK293 TREx D2 cells, calcium flux, dopamine EC80; at 10 µM; stronger effect = higher value. In a few lines: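 Antagonism is scored as inhibition of an EC80 dopamine-evoked calcium signal in a force-coupled, tetracycline-inducible HEK293 T-REx D2 line, with compound present 180 s before agonist.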
UniProt P14416, sequence (P14416 whole entry, looked up): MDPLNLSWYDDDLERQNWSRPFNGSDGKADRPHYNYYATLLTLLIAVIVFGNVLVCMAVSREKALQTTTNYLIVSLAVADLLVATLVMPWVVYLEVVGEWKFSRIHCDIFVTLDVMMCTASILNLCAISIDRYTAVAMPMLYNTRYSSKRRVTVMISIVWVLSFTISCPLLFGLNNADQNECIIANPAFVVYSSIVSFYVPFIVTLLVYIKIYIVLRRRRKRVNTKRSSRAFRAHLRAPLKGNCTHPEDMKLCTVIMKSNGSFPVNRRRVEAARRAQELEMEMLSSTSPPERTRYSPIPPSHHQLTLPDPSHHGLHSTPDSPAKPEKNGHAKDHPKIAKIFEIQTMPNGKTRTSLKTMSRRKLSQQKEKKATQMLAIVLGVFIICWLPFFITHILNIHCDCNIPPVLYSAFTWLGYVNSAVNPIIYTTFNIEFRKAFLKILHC
(In general: Calcium flux is commonly read through the fluorescence of an indicator in the cells.)
For `COc1ccc(NC(=O)CSc2nc3c(c(=O)n2-c2ccc(F)cc2)SCC3)c(OC)c1`, the inhibition was active: 37.7%.

As to `COc1ccccc1Cc1nc2ccccc2nc1SCC(=O)NCc1ccc(F)cc1`, the inhibition is 16.3%.

With `O=C(CC(c1cccs1)N1Cc2ccccc2C1=O)Nc1ccc(Cl)cc1` (stereo unspecified), the inhibition is 1.67%.

For the compound `COc1ccccc1Nc1nc2c(S(=O)(=O)c3ccc(C(C)C)cc3)nnn2c2ccsc12`, the inhibition was -4.13%.

Turning to `CCOc1ccc2nc(Cl)c(C3CC(c4ccc(C)cc4)=NN3C(=O)CCCC(=O)O)cc2c1` (stereo unspecified), the inhibition came to 14.2%.

For the compound `Cc1cccc(N2CCN(c3ncnc4onc(-c5ccc(F)cc5)c34)CC2C)c1` (stereo unspecified), the inhibition is -5.52%.

Regarding `Cc1ccc2c(=O)cc(C(=O)Nc3ccc(S(=O)(=O)N4CCCCC4)cc3)oc2c1C`, the inhibition is -0.187%.

As for `CCOC(=O)c1[nH]c2ccccc2c1NC(=O)c1ccc(OC)c(OC)c1`, the inhibition was -2.36%.

Regarding `COc1cc(NC(=O)Cn2c(C)cc(C)c(C#N)c2=O)cc(OC)c1`, the inhibition was -1.85%.

For the compound `CCn1cc(C(=O)NCCc2ccc(Cl)cc2)c(=O)c2cc(S(=O)(=O)N3CCOCC3)ccc21`, the inhibition came out at 2.06%.

`Oc1cccc(-c2nc3ncccn3c2Nc2cccc(C(F)(F)F)c2)c1`: the inhibition amounted to 15.6%.

Regarding `CCN(CC)S(=O)(=O)c1ccc2c(c1)N(CC(=O)Nc1ccc(F)cc1F)C(=O)C1CCCN21` (stereo unspecified), the inhibition is 1.2%.

On to `Cc1ccc(CNc2ccc(-c3nc(-c4cccnc4)no3)cc2[N+](=O)[O-])cc1`, for which the inhibition is -5.31%.

As for `CCOC(=O)c1[nH]c2ccccc2c1NC(=O)c1cc(Cl)ccc1Cl`, the inhibition was 3.42%.

In the case of `COc1ccc(CNC(=O)CCCCCn2c(=O)[nH]c3ccccc3c2=O)cc1`, the inhibition is 16%.

With `CCOP(=O)(c1ccccc1)c1nc(-c2ccc(F)cc2)oc1N1CCCCC1` (stereo unspecified), the inhibition is active: 31.7%.

Consider `O=C(Cn1ncc2c3ccccc3n(Cc3ccccc3)c2c1=O)N1CCCCCC1`, for which the inhibition was determined as 3.02%.

Regarding `NC(=O)NC(CC(=O)NNC(=O)c1ccccn1)c1ccc(Cl)cc1` (stereo unspecified), the inhibition was active: 35.3%.

`COc1ccc(-c2noc(-c3ccccc3OCC(=O)Nc3ccc(C(C)=O)cc3)n2)cc1`: the inhibition is 1.53%.

Take `CCc1cccc(NC(=O)Cn2c(C(=O)OC)cc3occc32)c1`: the inhibition amounted to 0.425%.

Turning to `COc1ccccc1NC(=O)Cn1c(=O)n(-c2ccccc2Cl)c(=O)c2sc3ccccc3c21`, the inhibition is 5.82%.

`COCCCn1c(SCc2ccccc2F)nc2c(sc3ccccc32)c1=O`: the inhibition turned out to be 7.06%.

Take `Cc1cc(OCC(=O)O/N=C(\N)Cc2cccs2)ccc1Br`: the inhibition is active: 48.7%.

As to `COc1ccccc1CNC(=O)c1cc2sccc2n1Cc1ccc(F)cc1`, the inhibition is 12.8%.

Take `COc1ccc(Br)cc1CNC(=O)CCCn1c(=O)c2cccn2c2cccnc21`: the inhibition worked out at 2.65%.

For the compound `COc1ccc(C2C=C(c3ccc(C)cc3)Nc3c(C(=O)Nc4ccccc4)cnn32)cc1` (stereo unspecified), the inhibition is -27.9%.

Turning to `CCCS(=O)(=O)c1c(S(=O)(=O)CCC)c2cc(C(C)(C)C)ccn2c1C(=O)c1ccc(OC)c(OC)c1`, the inhibition worked out at 5.74%.

As for `O=C(Nc1ccc(F)c(Cl)c1)C1CCCN(c2ncnc3onc(-c4ccc(F)cc4)c23)C1` (stereo unspecified), the inhibition was -0.55%.

Regarding `COC(=O)c1cc2sccc2n1Cc1ccc(F)cc1`, the inhibition was determined as 13.6%.

For `CCCCC(=O)Nc1nnc(S(=O)(=O)N2CCCCCC2)s1`, the inhibition was determined as 20.4%.

In the case of `CN1CCN(c2nc(-c3cccs3)nc3ccccc23)CC1`, the inhibition is active: 32.3%.

On to `CCN(c1cccc(C)c1)C(CNS(=O)(=O)c1ccccc1)c1ccccc1` (stereo unspecified), for which the inhibition is -1.63%.

As to `O=C(NC1CCN(Cc2ccc(Cl)cc2)CC1)c1cn(-c2ccccc2)nc1-c1cccnc1`, the inhibition is active: 74%.

For `CCOc1ccc(NC(=O)c2cccc(N3CCCS3(=O)=O)c2)cc1`, the inhibition is 6.69%.

As to `Cc1ccc(C)c(N2CCN(C(=O)CN3C(=O)COc4ccc(S(=O)(=O)N5CCOCC5)cc43)CC2)c1`, the inhibition was 12.6%.

`Cc1ccc(C)c(CNC(=O)C2CCCCN2S(=O)(=O)c2ccc(F)cc2)c1` (stereo unspecified): the inhibition stood at 5.29%.

Take `Cc1cccc(-c2cc(NC(=O)c3ccccc3C)n(-c3ccccc3)n2)c1`: the inhibition is -22.8%.

With `Nc1c2c(nc3c1CCC3)CCCC2`, the inhibition is active: 30.7%.

For the compound `COc1ccc(C(=O)Oc2c(Sc3ccc(C)cc3)c(C)nn2C(C)(C)C)c(OC)c1`, the inhibition is -13.9%.

As for `Cc1ccc2cc(CCNC(=O)c3c(-c4ccccc4Cl)noc3C)c(=O)[nH]c2c1`, the inhibition was active: 34%.

Turning to `C=Cc1ccc(Cn2c(C(=O)O)c(CNCc3cc(OC)ccc3OC)c3ccc(C)cc32)cc1`, the inhibition was 4.15%.

`COCCNC(=O)C(=O)Nc1ccc2nc3n(c(=O)c2c1)CCCCC3`: the inhibition was -0.467%.

With `CCC12CN3CC(C)(CN(C1)C3c1c(C)[nH]c3ccccc13)C2=O` (stereo unspecified), the inhibition is 1.38%.

Regarding `CCOc1ccc(C2C(C(=O)Nc3ccc(C)cc3C)=C(C)Nc3c(C(=O)Nc4ccc(C)cc4)cnn32)cc1OC` (stereo unspecified), the inhibition was -0.045%.

For `COc1ccc(CCNC(=O)C(C)n2nc(C)c3sc4ccccc4c3c2=O)cc1OC` (stereo unspecified), the inhibition was -23.8%.

With `COc1ccc(C2NC(=O)N(C)C3=C2C(=O)N(c2ccccc2)C3)cc1` (stereo unspecified), the inhibition is -7.65%.

As for `COc1ccc(-c2nc3c(C#N)c[nH]n3c2NC2CCCCC2)cc1`, the inhibition was -0.285%.

As for `COc1ccc(CN2CCN(C(=O)c3ccco3)CC2)cc1OC`, the inhibition is active: 59.8%.

For the compound `CCOCCCn1c(=N)c(S(=O)(=O)c2ccccc2)cc2c(=O)n3cc(C)ccc3nc21`, the inhibition was -17.8%.

With `CC(=O)c1cccc(NC(=O)c2ccc3c(c2)CCN3S(=O)(=O)c2ccccc2)c1`, the inhibition was -8.24%.

On to `Cc1ccc(-n2nc(C)c3c(C)c(CCC(=O)NCc4cccc(Cl)c4)c(C)nc32)cc1C`, for which the inhibition came out at 4.53%.

As for `Cc1cccc(C(=O)Nc2cc3c(cc2N2CCCCC2)n(C)c(=O)n3C)c1`, the inhibition is 20.7%.

Take `O=C(CSc1c2c(nc3ccc(Cl)cc13)CCCC2)N1CCCCC1`: the inhibition is -11.6%.

With `CCCCC1=CC2=C(c3ccco3)C(=O)C(C)(OC(=O)c3ccc(OC)cc3)C(=O)C2=CN1Cc1ccc2c(c1)OCO2` (stereo unspecified), the inhibition was active: 33.2%.

Consider `Cc1ccccc1OCC(=O)Nc1ccc(S(=O)(=O)Nc2ncccn2)cc1`, for which the inhibition was -5.97%.

As to `Cc1ccc2c(c1)N(CC(=O)NCc1cccc(Cl)c1)C(=O)c1cccnc1O2`, the inhibition was -2.52%.

Regarding `COc1ccccc1Cn1c(CNS(=O)(=O)c2c(C)cc(C)cc2C)nc2cccnc21`, the inhibition was -22.1%.

Consider `Cc1ccc(CN2C(=O)C3(SCC(=O)N3c3ccc(C)c(C)c3)c3ccccc32)cc1` (stereo unspecified), for which the inhibition was -8.71%.

As for `COC(=O)C1=C(c2ccccc2)c2ccccc2S(=O)(=O)N1CC(=O)Nc1cc(C)ccc1C`, the inhibition is -17.6%.

As to `CCOC(=O)Cn1nc(N2CCN(c3ccc(F)cc3)CC2)ccc1=O`, the inhibition is 5.58%.

In the case of `CCOC(=O)c1cccc(NC(=O)CCc2c(C)nc3c4cccnc4nn3c2C)c1`, the inhibition is -10.3%.

For the compound `Cc1cccc(N2CCN(c3c(CN4CCCC4)c(=O)oc4ccccc34)CC2)c1C`, the inhibition is 16.3%.

Take `Cc1c(C(=O)N2CCOCC2)oc2c1-c1nn(CC(=O)NCc3ccccc3)cc1CC2`: the inhibition was 2.07%.

For the compound `CSc1ccc(Nc2nn(-c3ccc(OC(F)(F)F)cc3)nc2C(C)=O)cc1`, the inhibition amounted to 11.5%.

As for `Cn1c(=O)n(C)c2cc(CNCc3ccc(C(=O)O)cc3)ccc21`, the inhibition is 7.23%.

For `CC1(C)C(C=C(Cl)Cl)C1C(=O)N/N=C/c1ccccc1F` (stereo unspecified), the inhibition was active: 59.9%.

On to `COc1ccc(-c2onc(C)c2C)cc1S(=O)(=O)NC1CCCCC1`, for which the inhibition is -1.54%.

As for `Cc1cccc(N2CCN(C(=O)Cn3nc(C)c4sc5ccccc5c4c3=O)CC2C)c1` (stereo unspecified), the inhibition is -9.06%.

Turning to `CCn1cc(C(=O)N(C)Cc2ccccc2)c(=O)c2cc(S(=O)(=O)N3CCCCC3)ccc21`, the inhibition was -5.44%.

On to `CCOc1ccccc1NC(=O)c1ccc2oc(=O)c(S(=O)(=O)c3ccc(F)cc3)cc2c1`, for which the inhibition was -7.89%.

For `CN(C(=O)CSc1nc2ccc(NC(=O)c3ccc(F)cc3)cc2s1)c1ccccc1`, the inhibition is -1.39%.

As for `COc1ccc(NC(=O)CCS(=O)(=O)c2cc(Br)cc3c2N(C(C)=O)CC3)c(OC)c1`, the inhibition was 18.6%.

In the case of `Cc1ccccc1CCNC(=O)c1cc2ccccn2n1`, the inhibition was determined as 12.8%.

Take `COc1ccc(Cl)cc1CN1CCN(c2nc(C)cc(C)c2C#N)CC1`: the inhibition is active: 41.3%.

Consider `COc1ccccc1C1C(C(N)=O)=C(C)Nc2nc(SCc3ccccc3F)nn21` (stereo unspecified), for which the inhibition is -18.8%.

Regarding `Cc1c(C(=O)N(C)C)sc2c1c(=O)n(-c1ccc(Cl)c(Cl)c1)c(=O)n2Cc1ccc(F)cc1`, the inhibition is 23.4%.

With `O=C(Nc1cccc(C(=O)OCc2cc(=O)n3nc(C4CC4)sc3n2)c1)c1ccc(F)cc1`, the inhibition was -7.75%.

As for `CC(=O)c1ccc(S(=O)(=O)N2CCC(Oc3ccc(-n4cnnn4)cc3)CC2)cc1`, the inhibition was -12.4%.

Take `O=C(CSc1nnc(C2CC2)n1Cc1ccccc1)c1ccc(S(=O)(=O)N2CCOCC2)cc1`: the inhibition was active: 46.5%.

As for `O=C(Nc1cccc(Cl)c1)N1Cc2ccccc2Oc2ncccc21`, the inhibition was -7.26%.

As for `CCc1ccc(NC(=O)CN2C(=O)C(=O)c3ccccc32)cc1`, the inhibition was 7.02%.

As for `COc1ccc(S(=O)(=O)Nc2ccc(O)c(Sc3nc4ccccc4s3)c2)cc1`, the inhibition amounted to 22.7%.

As to `CCCC(=O)NC1CC(=O)N(c2ccc3c(c2)OCCO3)C1` (stereo unspecified), the inhibition is -1.16%.

As to `CC(C)c1ccc(NC(=O)c2cn(C3CCCC3)c(=O)c3c2c2ccccc2n3C)cc1`, the inhibition worked out at 6.55%.

For the compound `CCCOc1ccc(NC(=O)CC2C(=O)N(c3cccc(OC)c3)C(=O)N2CCc2ccncc2)cc1` (stereo unspecified), the inhibition was -2.67%.

In the case of `COc1cccc(NC(=O)CSc2cc(C)c3ccccc3n2)c1`, the inhibition is -3.56%.

With `COc1ccccc1-c1nc(CNC(=O)NC2CCCCC2)c(C)o1`, the inhibition worked out at 2.34%.

As to `O=C(Cn1ncc2ccsc2c1=O)N1CCN(c2ccc(Cl)cc2)CC1`, the inhibition turned out to be 12.9%.

Take `CC1CCCCN1Cc1nc2c(c(=O)n(C)c(=O)n2C)n1Cc1ccc(Br)cc1` (stereo unspecified): the inhibition was -10.5%.

Regarding `COc1ccc(NC(=O)c2c(-c3ccc(C)cc3)nnc3ccccc23)cc1OC`, the inhibition is 2.72%.

Regarding `Cc1ccc2c(Sc3ccc(Cl)cc3)c(C(=O)N3CCCCC3)[nH]c2c1`, the inhibition is -5.96%.

As for `Clc1ccccc1OCCN1CCCCC1`, the inhibition is active: 44.3%.

For `O=c1nc(/C=C/c2ccccc2C(F)(F)F)cc(C(F)(F)F)[nH]1`, the inhibition is active: 32.2%.

For `CC(Nc1ccc(-c2nc(-c3cccnc3)no2)cc1[N+](=O)[O-])c1ccccc1` (stereo unspecified), the inhibition is -1.02%.

As for `CCS(=O)(=O)c1ccc(C(=O)N2CCN(c3nc4c(OC)ccc(C)c4s3)CC2)cc1`, the inhibition was -2.88%.

As to `O=C(CSc1cn(CCNC(=O)c2ccccc2F)c2ccccc12)Nc1ccc2c(c1)OCCO2`, the inhibition is -10.2%.

One may read the inhibition as the change of the read-out against control, counted positive when it falls.
